# Measured values reported in the supplement of paper PMC11417369.
# Some of the results follow.
# Test system: PfHDP1 homeodomain (GST-tagged)
# Assay: gcPBM binding intensity (ln(normalized median fluorescence intensity)); higher = stronger DNA binding
# Outline: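 The binding buffer was 1× PBS containing 1% milk, 0.2 mg/ml BSA, 0.5% salmon testes DNA and 0.03% Triton X-100. In it, GST-tagged P. falciparum DNA-binding domains expressed in E. coli were applied for 1 h to an Agilent 4 × 180k array of primer-extended double-stranded 36-bp intergenic genomic probes plus negative controls. Binding intensity, read with Alexa488 anti-GST antibody and a 488 nm scan, is the highest Masliner-normalised natural-log median intensity across replicate spots of either probe orientation.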
row,Sequence,gcPBM binding intensity (ln)
1,AGAGAGAGAAATACAAGTACATGTGAAACCAATCTA [XGTACX_site2767],6.69
2,AAAAAATAAAAAAAAACACACACATACAAGCATATA [CACACA_site8451],6.8
3,AAAAAAAACAAATACACACGCACACCGAAAAAAAAA [CACACA_site803],6.77
4,TTCAACATAATATGCACACAAAAATTATGGAACGAA [CACACA_site2111],10.3
5,AAAAAAAAAAAAATTGCACACAAAAAAAAAAAAAAA [CACACA_site8644],9.28
6,TTTGTGTGTGCGTGTGCATGTTGTTTTTTTCTATAA [TGCATGCA_site17],8.6
7,AATATAATAACTTATTGTACGAAATTATATCACCTT [XGTACX_site7883],6.44
8,TATTCACATACAGAAACACACACATATATATAAATT [CACACA_site9232],6.84
9,ATATATGTATATATTTGTACATATAATATTTTTTAA [XGTACX_site6345],6.11
10,ATTTGTAATTTATTCAAACACACAATTTGGACCTTT [CACACA_site1062],6.19
11,TAATTAAGCATAAATATAATTTTATATTTTATTTCC [XGTACX_negctrl_site321],5.89
12,TAACATAGCAATGTTTCACACACAAGAAAAAATACA [CACACA_site8747],6.99
13,TGCAGTCTGGAGAAAAGTACATAGTATCTGGTAGCT [XGTACX_site2547],6.4
14,TCATATTTATATAAATGTACTTAATTGGTTTCTTTA [XGTACX_site7848],6.38
15,ATGTTATTAATAATTGCACACATTTTTTTTTTTTTT [CACACA_site3920],9.71
16,AGATTGTAAGTAAACACACACACATATATATGTATA [CACACA_site675],6.67
17,TTTTTGTAACCGATTCTGCACTGAGAAGCACATATA,7.23
18,GGCATATATATATGCACACATACATATATACATGTG [CACACA_site3859],10.4
19,TACACATACAGACATACACACATACCCATATACTCA [CACACA_site5037],7.11
20,ATATTATACGCATATGTGCGCATACATTTTTTTGCA [GTGCAC_site9540],7.53
21,GAAATTACTTTATAAACACACATTTATTTTATTTTA [CACACA_site7007],6.55
22,TTATTTACAAAACAAATCAAAATATCCAAAAGAATA [CACACA_negctrl_site1789],6.01
23,ATTCATTCCATACTTTAACACACAAATATATTTAAT [CACACA_site7930],6.91

row,Sequence,gcPBM binding intensity (ln)
1,AAAAAAAAAAAAAACACACAGAAATATATATATATT [CACACA_site832],6.37
2,AAAGGAAAAGTTGACTGTACATAAGTAAAAAATAAT [XGTACX_site788],6.93
3,TTTATACAAATATGTACACACTAAATATATATTATG [CACACA_site4413],6.77
4,ATTATTTGATTAAAGGTGCAAGGATAATAATAAAAC,8.28
5,TAATGGTATAAAAAATGTACATGTTTTTTTACAATT [XGTACX_site4285],6.26
6,ATATATATATATTTATGTACATATTATTTATTCTTT [XGTACX_site6567],8.83
7,ACATATAATAAAATAGTGCATTGTTAGTTTTATATA,9
8,TATTATATAATATACTGTACAATATCCATTATTTAC [XGTACX_site7091],6.6
9,TATATTTACTTATATGCACACATAAATGTGAATTAT [CACACA_site9258],9.85
10,GTTAATCACCATGTGGTGCATATAAGGGCATATTAT [GTGCAC_site9748],10.3
11,TCTTTTATATATAATAATTATATATAACATTCAAAC [GTGCAC_negctrl_site112],6.81
12,AATTAATAAAAAAGGTGTACAGTAAATGCAATAATC [XGTACX_site7956],8.08
13,ATAAATTCATACATTTGTACACAAAAAAAAAAAAAA [XGTACX_site2435],6.56
14,CCTTATACGATATTATGTACGCATATGTGCATTTTT [XGTACX_site1570],10.9
15,AAAAAAATAAAATATATATATATATATATATATATA [GTGCAC_negctrl_site706],9.58
16,TATATATGGATATATACACACAACGGTTATAAATAT [CACACA_site6655],6.73
17,AATATAGGAATATGCACACATATATACATACATACA [CACACA_site1521],9.82
18,TATATATATATATTATGTACATATATAAATTAACAT [XGTACX_site3368],8.65
19,CTTAAAATATATTTAGTGCATATACTAATATATTAT,8.9
20,TTTTTTAAAGTTTAAAGTACATATAAAAATATATAA [XGTACX_site5267],5.94
21,TATGAAAAAAAAAAAAAAAAAAAAAAAAAAAAAAAA [XGTACX_negctrl_site587],6.55
22,TGTAAATATAAAAGATAATGATAAAAGGGACATTTT [CACACA_negctrl_site661],6.37
23,AATATATATATGTGTACACATCCAAAATAGGCATAC [CACACA_site5705],7.59

row,Sequence,gcPBM binding intensity (ln)
1,ATATATATATAAATATGTACATATTTATATATGAAT [XGTACX_site3220],8.6
2,ATCTATATTATAATAACACACATATATTATAGTATA [CACACA_site6330],6.53
3,TATATATATATATTATGTACATATAAATATATTTTT [XGTACX_site1509],8.8
4,AAGAAAAATACTACGTGTACCAAACTTCCTACCAAC [XGTACX_site1426],6.67
5,ATGTAGAATTGTAAATGTACATGAAACACATATTCA [XGTACX_site3436],6.57
6,CTCACATATATATATAGTACAATTTTTTTTTTTTTT [XGTACX_site5999],6.41
7,TTTTTATGTGTATATTATTACATTTACATCTTTAAC [CACACA_negctrl_site1676],6.64
8,ACAAGACAACAAGGAAGTACTCATAAATATATTTGG [XGTACX_site1423],6.82
9,CTTTAAACCCTGAACACACACAAATACACCCAAAAA [CACACA_site4297],6.95
10,AGAGAGAAAGTTATAACATGCAACAATTTTTAGAAG [TGCATGCA_site1],6.83
11,ATAAAATTATCTACATGTACTCATATATATTTGTTT [XGTACX_site5911],7.2
12,TATATATATATATGTGGTACATAAAATTATTATTTT [XGTACX_site4554],9.18
13,AAAAATAAGATATATACACACATATAAATATAAATA [CACACA_site7396],6.47
14,TTATTTATTCTATGTGCATGTTATTTTTTTTTTTCG [TGCATGCA_site262],8.21
15,TTTGTATTAAAAAAAAAAAAAAAAAAAATGAATAAA [TGCATGCA_negctrl_site292],5.82
16,TTTTTTTTTTTTTTTTTTTTTTTTCATTTGATATTA [TGCATGCA_negctrl_site112],6.29
17,ATAACGGAAAAAAAAAGTACATGATATAAACATGAA [XGTACX_site8428],6.01
18,TCAAAAAAAAAAAAAAAAAAAAAAAAAAAAAAAAAA [CACACA_negctrl_site1753],5.92
19,AATAAGCTCACGTGTCGTACATTTTTTAAAACAACC [XGTACX_site4707],6.68
20,AAAATCAAAAAAACAAGTACAAATGTGGACTTTTTT [XGTACX_site5363],6.01
21,TGTTCTATGGTTTGTAGTACTTTAATAAATATAAAT [XGTACX_site7823],6.35
22,GCTCAATTTTTGGGTACACACAAATGTATAAGAATA [CACACA_site7178],6.41
23,TTTTTCTAATTATGCACACATATCAAAATATTCAAT [CACACA_site2749],10.4

row,Sequence,gcPBM binding intensity (ln)
1,TATTTATTTTATATATGTACATAATATATTCTTATA [XGTACX_site1619],6.55
2,ATATATATAGAAATATGTACGAAAAAAATATCACAT [XGTACX_site746],6.57
3,TATATATATATATATGTGCACTGAAAGAATTATACA [GTGCAC_site9586],9.76
4,TGACCTGTTCAGGTAACACACATATAAACCCATACA [CACACA_site31],6.81
5,ATGCTATAGGATCTTACACACATTTTTGTAAAAAAA [CACACA_site1868],6.41
6,ATTTATGGAAAAAGAACACACAATCAAACAAAAATA [CACACA_site3707],7.14
7,TTTTTTTTTTTTTGGTGTACCATAGGTAAAATGATT [XGTACX_site8020],6.07
8,ATATAAATGAATATATGTACATATATATATATATAT [XGTACX_site6361],9.06
9,ACACAATAAACATTATGTACATATAATGTTCTGTGT [XGTACX_site3381],6.2
10,AATGATAATCTATTATGTACACATATATTCTTATGT [XGTACX_site4148],6.22
11,GAAAAAAAAATATCTTGTACTTACATAACTATTGGT [XGTACX_site5326],6.05
12,TAAATTAAAAAACATAAACTATTGGAAACGCATTGA [CACACA_negctrl_site935],6.35
13,AAAGGTTTATCTGATACACACATAAGTGATCAGGTT [CACACA_site6233],6.03
14,CTATATATAAAATATTGTACTTATTTTTATTACATC [XGTACX_site3963],6.15
15,TATACATATGTATGCACACATACATACCCATATAAT [CACACA_site5842],9.42
16,TATTTAAAATATTAAATTTGTAAAGTTCGAGGGAAG [GTGCAC_negctrl_site337],6.38
17,TTTTCTCAATTTTGGTGTACTTTTTTCTTAACACAT [XGTACX_site8918],6.89
18,AAAAGAAATGACAAATTGGATAGATAATAGGGGGTA [GTGCAC_negctrl_site262],6.61
19,AATTTTGATATATATTGTACGCATTTTTAAATGCCA [XGTACX_site7694],6.58
20,AATATATAGGAAAAAGTGCAATAAATGAACAAAATA,8.44
